According to patent publication US8633212B2, “Inhibitors of beta-secretase” (Vitae Pharmaceuticals, Inc., priority 2009, dated 2014):

Each compound was assayed against T1, ectodomain of BACE (aa 1-454) fused to a myc-his tag, secreted from HEK293/BACEect. cells (Homo sapiens (Human), UniProt P56817) (assay: biochemical). Details: not given.

| Compound | IC50 |
| --- | --- |
| COC1CCC2(CC1)Oc1ccc(CCC3CC3)cc1C21N=C(N)N(C)C1=O (stereo not drawn) [Compound 124] | 0.0215 µM |
| COC1CCC2(CC1)Oc1ccc(OCC3CC3)cc1C21N=C(N)N(C)C1=O (stereo not drawn) [Compound 132] | 0.0249 µM |
| COC1CCC2(CC1)Oc1ccc(OCC(F)(F)F)cc1C21N=C(N)N(C)C1=O (stereo not drawn) [Compound 133] | 0.0385 µM |
| CCN1C(=O)C2(N=C1N)c1cc(OCC3CC3)ccc1CC21CCC(OC)CC1 (stereo not drawn) [Compound 137] | 0.0078 µM |
| COC1CCC2(CC1)Cc1ccc(CCC3CC3)cc1C21N=C(N)N(C)C1=O (stereo not drawn) [Compound 148] | 0.0054 µM |
| COC1CCC2(CC1)Cc1ccc(-c3cncc(C#N)c3)cc1C21N=C(N)N(C(C)C)C1=O (stereo not drawn) [Compound 156] | 0.0122 µM |
| COC1CCC2(CC1)Cc1ccc(C#N)cc1C21N=C(N)N(C(C)C)C1=O (stereo not drawn) [Compound 158] | 0.0493 µM |
| CCCc1cncc(-c2ccc3c(c2)C2(N=C(N)N(C(C)C)C2=O)C2(CCC(OC)CC2)C3)c1 (stereo not drawn) [Compound 167] | 0.0425 µM |
| COC1CCC2(CC1)Cc1ccc(-c3cc(Br)cs3)cc1C21N=C(N)N(C(C)C)C1=O (stereo not drawn) [Compound 168] | 0.0293 µM |
| CC#Cc1csc(-c2ccc3c(c2)C2(N=C(N)N(C(C)C)C2=O)C2(CCC(OC)CC2)C3)c1 (stereo not drawn) [Compound 169] | 0.0203 µM |
| COC1CCC2(CC1)Cc1ccc(-c3nc(Br)cs3)cc1C21N=C(N)N(C(C)C)C1=O (stereo not drawn) [Compound 170] | 0.0897 µM |
| CC#Cc1csc(-c2ccc3c(c2)C2(N=C(N)N(C(C)C)C2=O)C2(CCC(OC)CC2)C3)n1 (stereo not drawn) [Compound 171] | 0.0558 µM |
| COC1CCC2(CC1)Cc1ccc(OCC3CC3)cc1C21N=C(N)N(C(C)C)C1=O (stereo not drawn) [Compound 173] | 0.0167 µM |
| COC1CCC2(CC1)Cc1ccc(-c3ccn(C4CC4)c(=O)c3)cc1C21N=C(N)N(C)C1=O (stereo not drawn) [Compound 201] | 0.188 µM |
| COC1CCC2(CC1)Cc1ccc(-c3cnn(C)c(=O)c3)cc1C21N=C(N)N(C)C1=O (stereo not drawn) [Compound 202] | 0.0323 µM |
| COC1CCC2(CC1)Cc1ccc(-c3cccc(S(C)(=O)=O)c3)cc1C21N=C(N)N(C)C1=O (stereo not drawn) [Compound 206] | 0.0408 µM |
| COC1CCC2(CC1)Cc1ccc(-c3cnc(C4CC4)s3)cc1C21N=C(N)N(C)C1=O (stereo not drawn) [Compound 208] | 0.0399 µM |
| COC1CCC2(CC1)Cc1ccc(C(=O)N3CCCC3)cc1C21N=C(N)N(C)C1=O (stereo not drawn) [Compound 209] | 0.814 µM |

| Compound | IC50 |
| --- | --- |
| COCC#Cc1ccc2c(c1)C1(N=C(N)N(C)C1=O)C1(CCC(OC)CC1)C2 (stereo not drawn) [Compound 219] | 0.0112 µM |
| COCCCc1ccc2c(c1)C1(N=C(N)N(C)C1=O)C1(CCC(OC)CC1)C2 (stereo not drawn) [Compound 220] | 0.0232 µM |
| COC1CCC2(CC1)Cc1ccc(CCCC(C)C)cc1C21N=C(N)N(C)C1=O (stereo not drawn) [Compound 222] | 0.016 µM |
| COC1CCC2(CC1)Cc1ccc(C(F)(F)F)cc1C21N=C(N)N(C)C1=O (stereo not drawn) [Compound 230] | 0.321 µM |
| COC1CCC2(CC1)Cc1ccc(-c3cncc(F)c3)cc1C21N=C(N)N(CC2CCO2)C1=O (stereo not drawn) [Compound 319] | 0.0137 µM |
| CCC(C)N1C(=O)C2(N=C1N)c1cc(C#CC3CC3)ccc1CC21CCC(OC)CC1 (stereo not drawn) [Compound 321] | 0.0222 µM |
| CCCN1C(=O)C2(N=C1N)c1cc(C#CC3CC3)ccc1CC21CCC(OC)CC1 (stereo not drawn) [Compound 322] | 0.0052 µM |
| CCCCN1C(=O)C2(N=C1N)c1cc(C#CC3CC3)ccc1CC21CCC(OC)CC1 (stereo not drawn) [Compound 323] | 0.0071 µM |
| COC1CCC2(CC1)Cc1ccc(C#CC3CC3)cc1C21N=C(N)N(Cc2cccc(-c3nccs3)c2)C1=O (stereo not drawn) [Compound 324] | 0.0103 µM |
| COC1CCC2(CC1)Cc1ccc(C#CC3CC3)cc1C21N=C(N)N(CCN(C)C)C1=O (stereo not drawn) [Compound 325] | 0.014 µM |
| COC1CCC2(CC1)Cc1ccc(C#CC3CC3)cc1C21N=C(N)N(CCC(F)(F)F)C1=O (stereo not drawn) [Compound 326] | 0.0161 µM |
| COCCCN1C(=O)C2(N=C1N)c1cc(CCC3CC3)ccc1CC21CCC(OC)CC1 (stereo not drawn) [Compound 329] | 0.0074 µM |
| COC1CCC2(CC1)Cc1ccc(C#CC3CC3)cc1C21N=C(N)N(CC2CCN(C)C2)C1=O (stereo not drawn) [Compound 330] | 0.024 µM |
| COC1CCC2(CC1)Cc1ccc(Br)cc1C21N=C(N)N(CC2CCCO2)C1=O (stereo not drawn) [Compound 331] | 0.0309 µM |
| COC1CCC2(CC1)Cc1ccc(-c3cncc(C#N)c3)cc1C21N=C(N)N(CC(F)(F)F)C1=O (stereo not drawn) [Compound 339] | 0.0225 µM |
| COC1CCC2(CC1)Cc1ccc(OCC3CC3)cc1C21N=C(N)N(CC(F)(F)F)C1=O (stereo not drawn) [Compound 341] | 0.0135 µM |
| COC1CCC2(CC1)Cc1ccc(C#CC3CC3)cc1C21N=C(N)N([C@H](C)c2ccccc2)C1=O (stereo partly drawn) [Compound 342] | 0.0375 µM |

The compounds below were run against T1, ectodomain of BACE (aa 1-454) fused to a myc-his tag, secreted from HEK293/BACEect. cells (assay: not given). Details: footnote b: protocols described in Example 435.

| Compound | IC50 |
| --- | --- |
| CO[C@H]1CC[C@]2(CC1)Cc1ccc(Br)cc1C21CC(C)(C)SC(N)=N1 (stereo partly drawn) [Compound 539] | 2.44 µM |
| CO[C@H]1CC[C@]2(CC1)Cc1ccc(C#CC3CC3)cc1C21N=C(N)N(CC(N)=O)C1=O (stereo partly drawn) [Compound 542] | 0.011 µM |
| CO[C@H]1CC[C@]2(CC1)Cc1ccc(C#CC3CC3)cc1C21N=C(N)N(CC(=O)OC(C)C)C1=O (stereo partly drawn) [Compound 543] | 0.0045 µM |
| CO[C@H]1CC[C@]2(CC1)Cc1ccc(C#CC3CC3)cc1C21N=C(N)N(CCC(=O)OC(C)C)C1=O (stereo partly drawn) [Compound 544] | 0.021 µM |
| CO[C@H]1CC[C@]2(CC1)Cc1ccc(C#CC3CC3)cc1C21N=C(N)N(Cc2nnc(C)s2)C1=O (stereo partly drawn) [Compound 545] | 0.0094 µM |
| CO[C@H]1CC[C@]2(CC1)Cc1ccc(Cl)cc1C21N=C(N)N(C)O1 (stereo partly drawn) [Compound 546] | 0.212 µM |
| CO[C@H]1CC[C@]2(CC1)Cc1ccc(C#N)cc1C21N=C(N)N(C)O1 (stereo partly drawn) [Compound 547] | 0.157 µM |
| CO[C@H]1CC[C@]2(CC1)Cc1ccc(OCC(F)(F)F)cc1C21N=C(N)N(CC(F)(F)F)C1=O (stereo partly drawn) [Compound 553] | 0.034 µM |
| CO[C@H]1CC[C@]2(CC1)Cc1ccc(C#CC3CC3)cc1C21N=C(N)N(Cc2ccnnc2)C1=O (stereo partly drawn) [Compound 558] | 4.08 µM |
| CO[C@H]1CC[C@]2(CC1)Cc1ccc(OCC3CC3)cc1[C@]21N=C(N)N(CC(F)(F)F)C1=O [Compound 559] | 0.007 µM |
| CO[C@H]1CC[C@]2(CC1)Cc1ccc(OCC(C)C)cc1C21N=C(N)N(CC(F)(F)F)C1=O (stereo partly drawn) [Compound 561] | 0.0117 µM |
| CN1C(=O)[C@@]2(N=C1N)c1ccccc1CC21CCc2ccccc2CC1 [Compound 562] | 8.05 µM |
| CN1C(=O)[C@]2(N=C1N)c1ccccc1CC21CCc2ccccc2CC1 [Compound 563] | 0.169 µM |
| CO[C@H]1CC[C@]2(CC1)Cc1ccc(OCC3CCC3)cc1C21N=C(N)N(CC(F)(F)F)C1=O (stereo partly drawn) [Compound 566] | 0.134 µM |
| CO[C@H]1CC[C@]2(CC1)Cc1ccc(-c3cc(C#N)cs3)cc1C21N=C(N)N(C(C)C)C1=O (stereo partly drawn) [Compound 567] | 0.251 µM |
| CO[C@H]1CC[C@]2(CC1)Cc1ccc(-c3ccc(C#N)s3)cc1C21N=C(N)N(C(C)C)C1=O (stereo partly drawn) [Compound 568] | 0.547 µM |
| CN1C(=O)C2(N=C1N)c1cc(Br)ccc1CC21CNC1 (stereo not drawn) [Compound 570] | 13.5 µM |
| COCCOc1ccc2c(c1)C1(N=C(N)N(C3CCC3)C1=O)[C@]1(CC[C@H](OC)CC1)C2 (stereo partly drawn) [Compound 571] | 0.112 µM |
| CO[C@H]1CC[C@]2(CC1)Cc1ccc(C#N)cc1C21N=C(N)N(CCc2nccs2)C1=O (stereo partly drawn) [Compound 573] | 0.0579 µM |
| CN1C(=O)C2(N=C1N)c1cc(C#CC3CC3)ccc1O[C@]21CC[C@@H](OC(F)F)CC1 (stereo partly drawn) [Compound 583] | 0.268 µM |
| CN1C(=O)C2(N=C1N)c1cc(Br)ccc1O[C@]21CC[C@@H](OC(F)F)CC1 (stereo partly drawn) [Compound 584] | 0.424 µM |
| CO[C@H]1CC[C@]2(CC1)Cc1ccc(Br)cc1[C@@]21N=C(N)N(CC(C)(C)O)C1=O [Compound 585] | 4.23 µM |
| CCCO[C@H]1CC[C@]2(CC1)Cc1ccc(-c3cccc(OC)c3)cc1C21N=C(N)N(C)O1 (stereo partly drawn) [Compound 596] | 0.455 µM |
| CCO[C@H]1CC[C@]2(CC1)Cc1ccc(-c3cccc(OC)c3)cc1C21N=C(N)N(C)O1 (stereo partly drawn) [Compound 597] | 0.086 µM |
| COCCCO[C@H]1CC[C@]2(CC1)Cc1ccc(-c3cccc(OC)c3)cc1C21N=C(N)N(C)O1 (stereo partly drawn) [Compound 601] | 0.293 µM |

More lines, now with the values ahead:

| IC50 | Compound |
| --- | --- |
| 0.614 µM | COCCO[C@H]1CC[C@]2(CC1)Cc1ccc(Cl)cc1C21N=C(N)N(C)C1=O (stereo partly drawn) [Compound 538] |
| 0.11 µM | CO[C@H]1CC[C@]2(CC1)Cc1ccc(N3CCCC3=O)cc1C21N=C(N)N(C)C1=O (stereo partly drawn) [Compound 549] |
| 0.025 µM | CO[C@H]1CC[C@]2(CC1)Cc1ccc(OCC(F)(F)F)cc1C21N=C(N)N(CCF)C1=O (stereo partly drawn) [Compound 552] |
| 0.008 µM | CN1C(=O)C2(N=C1N)c1cc(OCC(F)(F)F)ccc1C[C@]21CC[C@@H](OC(F)F)CC1 (stereo partly drawn) [Compound 557] |
| 0.007 µM | COC1CCC2(CC1)Cc1ccc(OCC(C)C)cc1C21N=C(N)N(CCF)C1=O (stereo not drawn) [Compound 572] |
| 0.108 µM | CO[C@H]1CC[C@]2(CC1)Cc1ccc(CN3CCC(F)(F)C3)cc1C21N=C(N)N(C)C1=O (stereo partly drawn) [Compound 576] |
| 0.248 µM | CO[C@H]1CC[C@]2(CC1)Cc1ccc(Oc3ccccc3)cc1[C@@]21N=C(N)N(C)C1=O [Compound 577] |
| 0.0039 µM | CO[C@H]1CC[C@]2(CC1)Cc1ccc(Oc3ccccc3)cc1[C@]21N=C(N)N(C)C1=O [Compound 578] |
| 0.458 µM | CO[C@H]1CC[C@]2(CC1)Cc1ccc(-n3ccccc3=O)cc1C21N=C(N)N(C)C1=O (stereo partly drawn) [Compound 582] |
| 2.12 µM | CO[C@H]1CC[C@]2(CC1)Cc1ccc(Br)cc1[C@@]21N=C(N)N(Cc2cnccn2)C1=O [Compound 586] |
| 13.5 µM | CO[C@H]1CC[C@]2(CC1)Cc1ccc(Br)cc1[C@@]21N=C(N)N([C@@H](C)CO)C1=O [Compound 587] |
| 19.4 µM | CO[C@H]1CC[C@]2(CC1)Cc1ccc(Br)cc1[C@@]21N=C(N)N([C@H](C)CO)C1=O [Compound 588] |
| 0.006 µM | CO[C@H]1CC[C@]2(CC1)Cc1ccc(Oc3cc(Cl)cc(Cl)c3)cc1C21N=C(N)N(C)C1=O (stereo partly drawn) [Compound 593] |
| 0.099 µM | CO[C@H]1CC[C@]2(CC1)Cc1ccc(Oc3cccc(Cl)c3)cc1C21N=C(N)N(C)O1 (stereo partly drawn) [Compound 594] |
| 0.105 µM | CO[C@H]1CC[C@]2(CC1)Cc1ccc(Oc3ccc(Cl)cc3)cc1C21N=C(N)N(C)O1 (stereo partly drawn) [Compound 595] |
